# From the supplement of paper PMC8728848
# The other results are listed elsewhere or left out.
# B1: Factor H (Homo sapiens), P08603 (protein)
# chain: MRLLAKIICLMLWAICVAEDCNELPPRRNTEILTGSWSDQTYPEGTQAIYKCRPGYRSLGNVIMVCRKGEWVALNPLRKCQKRPCGHPGDTPFGTFTLTGGNVFEYGVKAVYTCNEGYQLLGEINYRECDTDGWTNDIPICEVVKCLPVTAPENGKIVSSAMEPDREYHFGQAVRFVCNSGYKIEGDEEMHCSDDGFWSKEKPKCVEISCKSPDVINGSPISQKIIYKENERFQYKCNMGYEYSERGDAVCTESGWRPLPSCEEKSCDNPYIPNGDYSPLRIKHRTGDEITYQCRNGFYPATRGNTAKCTSTGWIPAPRCTLKPCDYPDIKHGGLYHENMRRPYFPVAVGKYYSYYCDEHFETPSGSYWDHIHCTQDGWSPAVPCLRKCYFPYLENGYNQNYGRKFVQGKSIDVACHPGYALPKAQTTVTCMENGWSPTPRCIRVKTCSKSSIDIENGFISESQYTYALKEKAKYQCKLGYVTADGETSGSITCGKDGWSAQPTCIKSCDIPVFMNARTKNDFTWFKLNDTLDYECHDGYESNTGSTTGSIVCGYNGWSDLPICYERECELPKIDVHLVPDRKKDQYKVGEVLKFSCKPGFTIVGPNSVQCYHFGLSPDLPICKEQVQSCGPPPELLNGNVKEKTKEEYGHSEVVEYYCNPRFLMKGPNKIQCVDGEWTTLPVCIVEESTCGDIPELEHGWAQLSSPPYYYGDSVEFNCSESFTMIGHRSITCIHGVWTQLPQCVAIDKLKKCKSSNLIILEEHLKNKKEFDHNSNIRYRCRGKEGWIHTVCINGRWDPEVNCSMAQIQLCPPPPQIPNSHNMTTTLNYRDGEKVSVLCQENYLIQEGEEITCKDGRWQSIPLCVEKIPCSQPPQIEHGTINSSRSSQESYAHGTKLSYTCEGGFRISEENETTCYMGKWSSPPQCEGLPCKSPPEISHGVVAHMSDSYQYGEEVTYKCFEGFGIDGPAIAKCLGEKWSHPPSCIKTDCLSLPSFENAIPMGEKKDVYKAGEQVTYTCATYYKMDGASNVTCINSRWTGRPTCRDTSCVNPPTVQNAYIVSRQMSKYPSGERVRYQCRSPYEMFGDEEVMCLNGNWTEPPQCKDSTGKCGPPPPIDNGDITSFPLSVYAPASSVEYQCQNLYQLEGNKRITCRNGQWSEPPKCLHPCVISREIMENYNIALRWTAKQKLYSRTGESVEFVCKRGYRLSSRSHTLRTTCWDGKLEYPTCAKR
# Key:
# Assay in all cases: glycan array binding signal (z-score within array); higher = stronger binding
# Conditions in all cases: glycan notation: IUPAC condensed, linker removed
# [1] = target: GlcNAc(b1-6)GalNAc
# Method in brief: (§1)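 From the Consortium for Functional Glycomics database, 3228 arrays were curated, keeping only those whose protein sequence was available. Binding is given as a within-array Z-score averaged across arrays sharing a protein sequence and across linkers. Negative Z-scores can be read as non-binding.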
# [2] = target: GlcNAc3Prop(b1-4)GlcNAc
# Method in brief: as §1
# [3] = target: Kdn(a2-3)Gal(b1-3)GlcNAc
# Method in brief: as §1
# [4] = target: Kdn(a2-3)Gal(b1-4)GlcNAc
# Method in brief: as §1
# [5] = target: Man(a1-2)Man(a1-2)Man(a1-3)Man
# Method in brief: as §1
# [6] = target: Man(a1-2)Man(a1-2)Man(a1-6)[Man(a1-3)]Man
# Method in brief: as §1
# [7] = target: Man(a1-2)Man(a1-3)Man
# Method in brief: as §1
# [8] = target: Man(a1-2)Man(a1-3)[Man(a1-2)Man(a1-6)]Man
# Method in brief: as §1
# [9] = target: Man(a1-2)Man(a1-3)[Man(a1-2)Man(a1-6)]Man(a1-6)[Man(a1-2)Man(a1-2)Man(a1-3)]Man
# Method in brief: as §1
# [10] = target: Man(a1-2)Man(a1-3)[Man(a1-2)Man(a1-6)]Man(a1-6)[Man(a1-2)Man(a1-2)Man(a1-3)]Man(b1-4)GlcNAc(b1-4)GlcNAc
# Method in brief: as §1
# [11] = target: Man(a1-2)Man(a1-3)[Man(a1-6)]Man(a1-6)[Man(a1-2)Man(a1-3)]Man(b1-4)GlcNAc(b1-4)GlcNAc
# Method in brief: as §1
# [12] = target: Man(a1-2)Man(a1-6)[Man(a1-3)]Man(a1-6)[Man(a1-2)Man(a1-2)Man(a1-3)]Man
# Method in brief: as §1
# [13] = target: Man(a1-2)Man(a1-6)[Man(a1-3)]Man(a1-6)[Man(a1-2)Man(a1-2)Man(a1-3)]Man(b1-4)GlcNAc(b1-4)GlcNAc
# Method in brief: as §1
# [14] = target: Man(a1-3)[Man(a1-6)]Man
# Method in brief: as §1
# [15] = target: Man(a1-3)[Man(a1-6)]Man(a1-6)[Man(a1-2)Man(a1-3)]Man(b1-4)GlcNAc(b1-4)GlcNAc
# Method in brief: as §1
# [16] = target: Man(a1-3)[Man(a1-6)]Man(a1-6)[Man(a1-3)]Man
# Method in brief: as §1
# [17] = target: Man(a1-3)[Man(a1-6)]Man(a1-6)[Man(a1-3)]Man(b1-4)GlcNAc(b1-4)GlcNAc
# Method in brief: as §1
# [18] = target: Man(a1-3)[Man(a1-6)]Man(b1-4)GlcNAc(b1-4)GlcNAc
# Method in brief: as §1
# [19] = target: Man(a1-6)Man
# Method in brief: as §1
# [20] = target: Man(b1-4)GlcNAc
# Method in brief: as §1
# [21] = target: Neu5Ac(a2-3)Gal
# Method in brief: as §1
# [22] = target: Neu5Ac(a2-3)Gal(b1-3)GalNAc
# Method in brief: as §1
# [23] = target: Neu5Ac(a2-3)Gal(b1-3)GalNAc(b1-3)Gal(a1-4)Gal(b1-4)Glc
# Method in brief: as §1
# [24] = target: Neu5Ac(a2-3)Gal(b1-3)GalNAc(b1-3)Gal(b1-4)GlcNAc
# Method in brief: as §1
# [25] = target: Neu5Ac(a2-3)Gal(b1-3)GalNAc(b1-4)[Neu5Ac(a2-3)]Gal(b1-4)Glc
# Method in brief: as §1
# [26] = target: Neu5Ac(a2-3)Gal(b1-3)GalNAc6S
# Method in brief: as §1
# [27] = target: Neu5Ac(a2-3)Gal(b1-3)GlcNAc
# Method in brief: as §1
# [28] = target: Neu5Ac(a2-3)Gal(b1-3)GlcNAc(b1-3)Gal(b1-3)GlcNAc
# Method in brief: as §1
# [29] = target: Neu5Ac(a2-3)Gal(b1-3)GlcNAc6S
# Method in brief: as §1
# [30] = target: Neu5Ac(a2-3)Gal(b1-3)[Fuc(a1-4)]GlcNAc
# Method in brief: as §1
# [31] = target: Neu5Ac(a2-3)Gal(b1-3)[Fuc(a1-4)]GlcNAc(b1-3)Gal(b1-4)[Fuc(a1-3)]GlcNAc
# Method in brief: as §1
# [32] = target: Neu5Ac(a2-3)Gal(b1-3)[Neu5Ac(a2-3)Gal(b1-4)]GlcNAc
# Method in brief: as §1
# [33] = target: Neu5Ac(a2-3)Gal(b1-3)[Neu5Ac(a2-6)]GalNAc
# Method in brief: as §1
# [34] = target: Neu5Ac(a2-3)Gal(b1-4)Glc
# Method in brief: as §1
# [35] = target: Neu5Ac(a2-3)Gal(b1-4)GlcNAc
# Method in brief: as §1
# [36] = target: Neu5Ac(a2-3)Gal(b1-4)GlcNAc(b1-2)Man(a1-3)[GlcNAc(b1-2)Man(b1-4)GlcNAc(b1-2)Man(a1-6)]Man(b1-4)GlcNAc(b1-4)GlcNAc
# Method in brief: as §1
# [37] = target: Neu5Ac(a2-3)Gal(b1-4)GlcNAc(b1-2)Man(a1-3)[Neu5Ac(a2-6)Gal(b1-4)GlcNAc(b1-2)Man(a1-6)]Man(b1-4)GlcNAc(b1-4)GlcNAc
# Method in brief: as §1
# [38] = target: Neu5Ac(a2-3)Gal(b1-4)GlcNAc(b1-3)Gal(b1-3)GlcNAc
# Method in brief: as §1
# [39] = target: Neu5Ac(a2-3)Gal(b1-4)GlcNAc(b1-3)Gal(b1-4)GlcNAc
# Method in brief: as §1
# [40] = target: Neu5Ac(a2-3)Gal(b1-4)GlcNAc(b1-3)Gal(b1-4)GlcNAc(b1-3)Gal(b1-4)GlcNAc
# Method in brief: as §1
# [41] = target: Neu5Ac(a2-3)Gal(b1-4)GlcNAc(b1-3)Gal(b1-4)[Fuc(a1-3)]GlcNAc
# Method in brief: as §1
# [42] = target: Neu5Ac(a2-3)Gal(b1-4)GlcNAc(b1-6)[Gal(b1-3)]GalNAc
# Method in brief: as §1
# [43] = target: Neu5Ac(a2-3)Gal(b1-4)GlcNAc(b1-6)[Neu5Ac(a2-3)Gal(b1-3)]GalNAc
# Method in brief: as §1
# [44] = target: Neu5Ac(a2-3)Gal(b1-4)GlcNAc6S
# Method in brief: as §1
binder,measurement,setting,value
B1,glycan array binding signal (z-score),[1],0.076
same,glycan array binding signal (z-score),[2],-0.617
same,glycan array binding signal (z-score),[3],1.99
same,glycan array binding signal (z-score),[4],-0.5
same,glycan array binding signal (z-score),[5],-0.099
same,glycan array binding signal (z-score),[6],-0.034
same,glycan array binding signal (z-score),[7],-0.002
same,glycan array binding signal (z-score),[8],0.253
same,glycan array binding signal (z-score),[9],-0.497
same,glycan array binding signal (z-score),[10],-0.18
same,glycan array binding signal (z-score),[11],-0.264
same,glycan array binding signal (z-score),[12],-0.682
same,glycan array binding signal (z-score),[13],-0.199
same,glycan array binding signal (z-score),[14],0.006
same,glycan array binding signal (z-score),[15],-0.106
same,glycan array binding signal (z-score),[16],-0.337
same,glycan array binding signal (z-score),[17],-0.43
same,glycan array binding signal (z-score),[18],-0.709
same,glycan array binding signal (z-score),[19],-0.725
same,glycan array binding signal (z-score),[20],-0.282
same,glycan array binding signal (z-score),[21],-0.391
same,glycan array binding signal (z-score),[22],-0.51
same,glycan array binding signal (z-score),[23],-0.396
same,glycan array binding signal (z-score),[24],-0.594
same,glycan array binding signal (z-score),[25],-0.517
same,glycan array binding signal (z-score),[26],-0.221
same,glycan array binding signal (z-score),[27],-0.494
same,glycan array binding signal (z-score),[28],0.292
same,glycan array binding signal (z-score),[29],-0.109
same,glycan array binding signal (z-score),[30],-0.088
same,glycan array binding signal (z-score),[31],0.104
same,glycan array binding signal (z-score),[32],-0.225
same,glycan array binding signal (z-score),[33],-0.053
same,glycan array binding signal (z-score),[34],-0.326
same,glycan array binding signal (z-score),[35],0.284
same,glycan array binding signal (z-score),[36],-0.674
same,glycan array binding signal (z-score),[37],0.231
same,glycan array binding signal (z-score),[38],-0.186
same,glycan array binding signal (z-score),[39],-0.566
same,glycan array binding signal (z-score),[40],-0.347
same,glycan array binding signal (z-score),[41],-0.415
same,glycan array binding signal (z-score),[42],-0.453
same,glycan array binding signal (z-score),[43],-0.364
same,glycan array binding signal (z-score),[44],-0.614
